The source of these data is PubChem BioAssay AID360 (National Center for Advancing Translational Sciences (NCATS), 2006).

The structures appear in SMILES notation. About 550 (1.1%) of roughly 48,000 compounds were called active. Inconclusive results (about 4%) are left out. No stated cut-off is given here; in the data, active means potency below about 15 µM; inconclusive means mostly about 16 µM to 33 µM; inactive means weaker than that. This is one part of the list. Some results are limits rather than exact numbers.
Potency means the concentration at half of the fitted maximal effect.

This assay has as its target Lysosomal acid glucosylceramidase (Homo sapiens) (UniProt P04062). In words: Glucocerebrosidase.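 Further: the screen sought inhibitors.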 Conditions: purified enzyme, resorufin glucoside fluorescence (screen aimed at inhibitors), 20 min; series mostly up to 77 µM. The method in brief: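 Wild-type enzyme at 0.2 nM final in 50mM citric acid/KH2PO4, 10mM sodium taurocholate, 0.01% tween-20, pH 5.9, with resorufin beta-D-glucopyranoside at 30 uM final. Compounds titrated, 20 min at RT, red fluorescence read; AC50 from titration.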
Sequence of UniProt P04062 (P04062 whole entry, looked up): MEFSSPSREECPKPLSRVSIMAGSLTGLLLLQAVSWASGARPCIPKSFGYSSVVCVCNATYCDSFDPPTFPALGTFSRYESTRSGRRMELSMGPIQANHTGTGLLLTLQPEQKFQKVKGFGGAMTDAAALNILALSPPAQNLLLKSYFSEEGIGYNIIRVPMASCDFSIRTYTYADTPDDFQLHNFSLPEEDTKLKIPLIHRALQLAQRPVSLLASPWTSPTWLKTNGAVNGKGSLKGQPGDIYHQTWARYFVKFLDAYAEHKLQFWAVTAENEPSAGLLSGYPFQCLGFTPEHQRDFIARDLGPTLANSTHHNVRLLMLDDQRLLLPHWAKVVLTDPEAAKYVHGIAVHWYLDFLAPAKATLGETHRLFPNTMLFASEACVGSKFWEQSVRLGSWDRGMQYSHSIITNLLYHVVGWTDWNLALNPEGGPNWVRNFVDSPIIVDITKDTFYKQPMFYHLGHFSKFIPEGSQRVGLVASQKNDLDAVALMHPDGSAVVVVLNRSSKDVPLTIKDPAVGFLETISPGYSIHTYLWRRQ
Turning to `CCOC(=O)c1c(NC(=O)c2nn(CC)cc2Br)c(C#N)nn1-c1ccccc1`, the Potency was inactive: > 76.9 µM.

Take `COCCn1c(C(C)C)nc2oc3ccccc3c(=O)c2c1=O`: the Potency is inactive: > 76.9 µM.

In the case of `CC(C)CCn1c(SCC(=O)c2ccccc2)nc2c1c(=O)[nH]c(=O)n2C`, the Potency is inactive: > 76.9 µM.

With `COc1cc(OC)c(C(=O)Nc2ncn[nH]2)cc1OC`, the Potency was inactive: > 76.9 µM.

For the molecule `S=C1SCN(Cc2ccccn2)CN1Cc1ccco1`, the Potency was inactive: > 76.9 µM.

Take `COC(=O)c1nnn(-c2ccccc2)c1N`: the Potency is inactive: > 76.9 µM.

Take `CCOC(=O)c1c(N)sc2c1CCS(=O)(=O)C2`: the Potency is inactive: > 76.9 µM.

`O=C(CCCN1Cc2ccccc2C1)c1ccc(F)cc1`: the Potency is inactive: > 76.9 µM.

In the case of `CCCc1nc2oc3c(N4CCNCC4)ncnc3c2c2c1CCCC2`, the Potency is inactive: > 76.9 µM.

For `Cc1c(-c2nc(N)nc(Nc3ccccc3)n2)oc2ccccc12`, the Potency result was “inactive”.

Consider `Cc1cc(N2CCC(C)CC2)n2nc(C)c(-c3ccccc3)c2n1`, for which the Potency is inactive: > 76.9 µM.

As for `CC(C)C(=O)Nc1ccccc1N1CCN(C(=O)c2ccccc2)CC1`, the Potency is inactive: > 76.9 µM.

In the case of `CCc1nnc(N2CCN(c3ncnc4c3oc3ccccc34)CC2)s1`, the Potency is inactive: > 76.9 µM.

As for `CC(C)C(NC(=O)C1CCCCC1)C(=O)Nc1ccncc1` (centres undefined), the Potency is inactive: > 76.9 µM.

On to `O=C(Nc1ccc(CN2CCOCC2)cc1)c1cc2ccccc2o1`, for which the Potency is inactive: > 76.9 µM.

As for `CN(C)c1nc(N)nc(/C(C#N)=C/C2CC3C=CC2C3)n1` (centres undefined), the Potency is inactive: > 76.9 µM.

`CCOc1ccc(OCC)c2sc(C)nc12`: the Potency was inactive: > 76.9 µM.

In the case of `CCC(=O)N1CN(S(=O)(=O)c2ccc(C)cc2)CC1C` (centres undefined), the Potency was inactive: > 76.9 µM.

For the molecule `CC(=O)N(C(C)=O)c1c(C#N)c(C)n(-c2ccccc2)c1C(=O)c1ccccc1`, the Potency is inactive: > 76.9 µM.

For the molecule `CC(C)n1c(=O)[nH]c2ccccc21`, the Potency is inactive: > 76.9 µM.

For `CCN(CC)S(=O)(=O)c1ccc(-c2nnc(SCC(=O)Nc3nc(C)cs3)o2)cc1`, the Potency is inactive: > 76.9 µM.

Consider `COc1ccc(NC2C=CS(=O)(=O)C2)c(OC)c1` (centres undefined), for which the Potency is inactive: > 76.9 µM.

`O=C(O)CCCCCNC(=O)CCn1nnc2ccccc2c1=O`: the Potency was inactive: > 76.9 µM.

`COc1ccccc1Nc1nc(C2(C)CCC(=O)O2)cs1` (centres undefined): the Potency was inactive: > 76.9 µM.

For the molecule `CN(C)C(=O)N1CCN(C(=O)c2ccccc2Sc2ccccc2C#N)CC1`, the Potency is inactive: > 76.9 µM.

On to `COc1ccc(NCc2nnc(SCC(=O)N3CCCc4ccccc43)n2C)cc1`, for which the Potency was inactive: > 76.9 µM.

On to `Cc1ccc(C(=O)Nc2ccccc2N2CCN(C(=O)C(C)C)CC2)cc1C`, for which the Potency was inactive: > 76.9 µM.

Regarding `Cc1cccc2sc(NC(=O)C3CCCO3)nc12` (centres undefined), the Potency was inactive: > 76.9 µM.

On to `CCc1ccccc1NC1=NCC(=O)N1C1CCCCC1`, for which the Potency was inactive: > 76.9 µM.

Regarding `O=C(O)CCn1c(=O)sc2ccccc21`, the Potency is inactive: > 76.9 µM.

For the molecule `CCCc1nc2oc3c(NCCN(C)C)ncnc3c2c2c1CCCC2`, the Potency is inactive: > 76.9 µM.

Consider `Cc1c(NC(=O)CSc2nc(-c3ccco3)cc(C(F)(F)F)n2)c(=O)n(-c2ccccc2)n1C`, for which the Potency is inactive: > 76.9 µM.

On to `CCOc1cc(C2/C(=C(/O)c3ccc(OC(C)C)cc3)C(=O)C(=O)N2CCCOC)ccc1O` (centres undefined), for which the Potency is inactive: > 76.9 µM.

Consider `O=c1cc(CO)oc(CN2CCN(c3ccccc3F)CC2)c1O`, for which the Potency is inactive: > 76.9 µM.

Regarding `NC(=O)N1CC(O)CC1C(=O)Nc1ccc(Cl)c(Cl)c1` (centres undefined), the Potency is inactive: > 76.9 µM.

Turning to `Clc1ccc(-c2nnc(NC3=NCCCCC3)o2)cc1`, the Potency is inactive: > 76.9 µM.

Turning to `C=CCN1C(=O)C2(/C(=C(\O)c3ccc4c(c3)OCCO4)C(=O)C(=O)N2CCCOC)c2ccccc21` (centres undefined), the Potency was inactive: > 76.9 µM.

With `CCOC(=O)c1sc2nc(-c3ccco3)c3c(c2c1N)CC(C)(C)OC3`, the Potency entry is “inactive”.

Take `CC(C)(C)C(=O)NC1(C(F)(F)F)C(=O)Nc2c1c(=O)[nH]c(=O)n2Cc1ccco1` (centres undefined): the Potency is inactive: > 76.9 µM.

Take `Cc1noc(C)c1S(=O)(=O)N1CCC(C(=O)Nc2ccc(OC(F)(F)F)cc2)CC1`: the Potency is inactive: > 76.9 µM.

Take `CCCCNC(=O)Nc1ccnn1C1CCCCC1`: the Potency is inactive: > 76.9 µM.

Regarding `CCc1cc(=O)oc2cc(OCC(=O)O)c(Cl)cc12`, the Potency was inactive: > 76.9 µM.

In the case of `O=C(COC(=O)CNC(=O)c1ccc(Br)o1)Nc1ccc2c(c1)OCCO2`, the Potency was inactive: > 76.9 µM.

On to `Cc1ccc(N(C(=O)CNC(=O)c2ccco2)C(C(=O)NC2CCCC2)c2cccnc2)cc1C` (centres undefined), for which the Potency is inactive: > 76.9 µM.

For `Cc1ccccc1-n1nc2c(c1NC(=O)c1cc3ccccc3oc1=O)CS(=O)C2` (centres undefined), the Potency is inactive: > 76.9 µM.

`CO/C=C/C#CC1(O)CCN(C)CC1`: the Potency was inactive: > 76.9 µM.

As to `CC1(C)CC(=O)C=C(NCC(=O)O)C1`, the Potency was inactive: > 76.9 µM.

For the molecule `COC(=O)C1CCN(Cc2cc(=O)oc3cc(OC)ccc23)CC1`, the Potency was inactive: > 76.9 µM.

With `COc1ccccc1NS(=O)(=O)c1ccc(NC(C)=O)cc1`, the Potency is inactive: > 76.9 µM.

Take `CN(C)S(=O)(=O)c1cccc(-c2nnc(SCc3ccc4c(c3)OCCO4)o2)c1`: the Potency was inactive: > 76.9 µM.

Take `Cc1noc(C)c1S(=O)(=O)N(C)CC(=O)NCc1ccccc1`: the Potency was inactive: > 76.9 µM.

Take `N#C/C(=C1/CCCCCN1)c1nc2ccccc2[nH]1`: the Potency was inactive: > 76.9 µM.

Consider `O=C(NC(Cc1ccccc1)C(=O)N1CCN(c2ccccn2)CC1)c1ccco1` (centres undefined), for which the Potency is inactive: > 76.9 µM.

`N#CCCN1CCN(C2=NC(=O)C(=C3CCCCC3)S2)CC1`: the Potency was inactive: > 76.9 µM.

For `Cc1c(NC(=O)CCC(=O)N2CCCCC2)c(=O)n(-c2ccccc2)n1C`, the Potency is inactive: > 76.9 µM.

`N#CCCN1CCN(C(=S)c2ccc(-c3cc(Cl)ccc3Cl)o2)CC1`: the Potency was inactive: > 76.9 µM.

Consider `O=C(O)CCSc1nc2ccc(Br)cc2[nH]1`, for which the Potency was inactive: > 76.9 µM.

For the molecule `Cn1cccc1C(=O)OCc1csc(-c2ccccc2)n1`, the Potency was inactive: > 76.9 µM.

Consider `Cc1cc(N2CCCC2=O)c(N)cc1N`, for which the Potency was inactive: > 76.9 µM.
